Whole data set: some 81,000 sequences, median “one-hybrid fitness for binding parS DNA” near -0.17, cut for the highest 2% near 0.51. The list shows a part of the results.
B1: Caulobacter ParB omega fusion; a variant is named by its letters at X, in order, B8GW30 (parent)
chain: MESVVVGEPGMSEGRRGLGRGLSALLGEVDAAPAQAPGEQLGGSREAPIEILQRNPDQPRRTFREEDLEDLSNSIREKGVLQPILVRPSPDTAGEYQIVAGERAWRAAQRAGLKTVPIMVRELDDLAVLEIGIIENVQRADLNVLEEALSYKVLMEKFERTQENIAQTIGKSXSHVANXMRLLXLPDEVQSYLVSGELTAXHARAIAAAADPVALAKQIIEGGLSVRETEALARKAPNLSAGKSKGGRPPRVKDTDTQALESDLSSVLGLDVSIDHRGSTGTLTITYATLEQLDDLCNRLTRGI

Variants of: B1
Assay: one-hybrid fitness for binding parS DNA (scaled: cognate 1, non-cognate 0); higher = stronger binding
Details: with parS DNA site
Procedure, shortened: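 The reporter was HIS3, with the binding site 19 bp from the promoter, in E. coli USO used for bacterial one-hybrid selection of Caulobacter ParB libraries with four specificity codons randomised. Growth was on M9 lacking histidine, with 0.1 mM IPTG and 5 mM 3-AT, for 48 hours at 37°C. Illumina sequencing covered plasmids before and after selection; three replicate libraries were pooled and variants with under 10 reads dropped. A fitness score is the log change in variant-to-wild-type read ratio, rescaled to the cognate and non-cognate references.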

Point of comparison: RQEF, “one-hybrid fitness for binding parS DNA” value 0.206. Against it:
- PSGL — lower, ≤ 0.2
- NGLP — lower, ≤ 0.2
- PRKG — lower, ≤ 0.2
- RYCH — higher, 0.223
- YTYT — lower, ≤ 0.2
- ETQR — lower, ≤ 0.2
- VRRL — lower, ≤ 0.2
- PVSA — lower, ≤ 0.2
- ADVY — lower, ≤ 0.2
- PCAF — lower, ≤ 0.2
- PQPC — lower, ≤ 0.2
- QMRW — lower, ≤ 0.2
- MEFS — lower, ≤ 0.2
- FFVP — lower, ≤ 0.2
- TTGN — lower, ≤ 0.2
- MSCG — lower, ≤ 0.2
- GWYW — lower, ≤ 0.2
- CRPT — lower, ≤ 0.2
- MFLN — lower, ≤ 0.2
- HSAM — lower, ≤ 0.2
- TMVG — lower, ≤ 0.2
- RHFI — lower, ≤ 0.2
- VTER — lower, ≤ 0.2
- MHFG — lower, ≤ 0.2
- PAFR — lower, ≤ 0.2
- VVDL — lower, ≤ 0.2
- QMWD — lower, ≤ 0.2
- LCHL — lower, ≤ 0.2
- HKWV — lower, ≤ 0.2
- VHYR — lower, ≤ 0.2
- RLLH — higher, 0.248
- CRQL — lower, ≤ 0.2
- LVPE — lower, ≤ 0.2
- IHPT — lower, ≤ 0.2
- MEVV — lower, ≤ 0.2
- RNVI — lower, ≤ 0.2
- PYRS — lower, ≤ 0.2
- SELS — lower, ≤ 0.2
- NRKS — lower, ≤ 0.2
- LKDF — lower, ≤ 0.2
- SWFR — lower, ≤ 0.2
- YQLS — lower, ≤ 0.2
- RFGL — lower, ≤ 0.2
- NTQA — lower, ≤ 0.2
- KRIS — lower, ≤ 0.2
- DSKR — lower, ≤ 0.2
- QANM — lower, ≤ 0.2
- WVRF — lower, ≤ 0.2
- TTAK — lower, ≤ 0.2
- AFNT — lower, ≤ 0.2
- DITP — lower, ≤ 0.2
- QMRD — lower, ≤ 0.2
- ITTR — lower, ≤ 0.2
- SRIR — lower, ≤ 0.2
- CTLG — lower, ≤ 0.2
- FHGR — lower, ≤ 0.2
- QKKD — lower, ≤ 0.2
- PSVK — lower, ≤ 0.2
- AEVH — lower, ≤ 0.2
- RVSP — lower, ≤ 0.2
- SDAI — lower, ≤ 0.2
- RVVL — lower, ≤ 0.2
- CCAS — lower, ≤ 0.2
- MRDY — lower, ≤ 0.2
- ISCR — lower, ≤ 0.2
- KVIR — lower, ≤ 0.2
- YLRG — lower, ≤ 0.2
- DPNS — lower, ≤ 0.2
- RFES — higher, 0.881
- TVHS — lower, ≤ 0.2
- TYYV — lower, ≤ 0.2
- EGMS — lower, ≤ 0.2
- NNND — lower, ≤ 0.2
- FNQD — lower, ≤ 0.2
- YEWR — lower, ≤ 0.2
- RSDF — lower, ≤ 0.2
- MQTM — lower, ≤ 0.2
- WRGI — lower, ≤ 0.2
- QPSN — lower, ≤ 0.2
- ESSL — lower, ≤ 0.2
- LERT — lower, ≤ 0.2
- QLGR — lower, ≤ 0.2
- FSIS — lower, ≤ 0.2
- WAME — higher, 0.301
- HHLR — lower, ≤ 0.2
- SSHS — lower, ≤ 0.2
- SHSE — lower, ≤ 0.2
- HKGG — lower, ≤ 0.2
- PAPD — lower, ≤ 0.2
- RKNF — lower, ≤ 0.2
- HPPK — lower, ≤ 0.2
- NNTC — lower, ≤ 0.2
- PPNS — lower, ≤ 0.2
- RIFI — lower, ≤ 0.2
- ETSE — lower, ≤ 0.2
- ERTN — lower, ≤ 0.2
- HLAR — lower, ≤ 0.2
- PFGK — lower, ≤ 0.2
- PLAD — lower, ≤ 0.2
- SPTF — lower, ≤ 0.2
- DDVV — lower, ≤ 0.2
- FAHM — lower, ≤ 0.2
- WDMR — lower, ≤ 0.2
- DHYT — lower, ≤ 0.2
- QYPW — lower, ≤ 0.2
- MMAG — lower, ≤ 0.2
- FLFY — lower, ≤ 0.2
- VAKD — lower, ≤ 0.2
- KHMT — lower, ≤ 0.2
- LPRK — lower, ≤ 0.2
- RRSS — higher, 0.653
- QCFG — lower, ≤ 0.2
- RPWE — lower, ≤ 0.2
- YVNA — lower, ≤ 0.2
- SGLR — lower, ≤ 0.2
- EMHG — lower, ≤ 0.2
- SMQT — lower, ≤ 0.2
- WPKR — lower, ≤ 0.2
- CLAL — lower, ≤ 0.2
- VTLK — lower, ≤ 0.2
- QYEI — lower, ≤ 0.2
- STSS — lower, ≤ 0.2
- VHWG — lower, ≤ 0.2
- SRSR — lower, ≤ 0.2
- FELF — lower, ≤ 0.2
- PPSP — lower, ≤ 0.2
- GDRE — lower, ≤ 0.2
- QQHF — lower, ≤ 0.2
- RETT — lower, ≤ 0.2
- STRE — lower, ≤ 0.2
- RQSP — lower, ≤ 0.2
- GSDR — lower, ≤ 0.2
- HEGQ — lower, ≤ 0.2
- DSEG — lower, ≤ 0.2
- TDPL — lower, ≤ 0.2
- CRQN — lower, ≤ 0.2
- LCKF — lower, ≤ 0.2
- RYYY — higher, 0.462
- GCLC — lower, ≤ 0.2
- HRPT — lower, ≤ 0.2
- ACMG — lower, ≤ 0.2
- FCQG — lower, ≤ 0.2
- VQPE — lower, ≤ 0.2
- ILQG — lower, ≤ 0.2
- RICI — lower, ≤ 0.2
- LFQI — lower, ≤ 0.2
- LWHE — lower, ≤ 0.2
- AELI — lower, ≤ 0.2
- PNMF — lower, ≤ 0.2
- TRVK — lower, ≤ 0.2
- PAVG — lower, ≤ 0.2
- FWAT — lower, ≤ 0.2
- MMDR — lower, ≤ 0.2
- WTPL — lower, ≤ 0.2
- YINW — lower, ≤ 0.2
- LDPP — lower, ≤ 0.2
- AGVE — lower, ≤ 0.2
- MLHL — lower, ≤ 0.2
- ACER — lower, ≤ 0.2
- TCGT — lower, ≤ 0.2
- CLEC — lower, ≤ 0.2
- KSTG — lower, ≤ 0.2
- ISWG — lower, ≤ 0.2
- MNES — lower, ≤ 0.2
- EWGE — lower, ≤ 0.2
- YGLG — lower, ≤ 0.2
- RRPC — higher, 0.796
- RYRM — higher, 0.328
- VPPW — lower, ≤ 0.2
- HPLS — lower, ≤ 0.2
- GSAQ — lower, ≤ 0.2
- PVGS — lower, ≤ 0.2
- MMKW — lower, ≤ 0.2
- IYWV — lower, ≤ 0.2
- SHNF — lower, ≤ 0.2
- CMAR — lower, ≤ 0.2
- MANI — lower, ≤ 0.2
- RMFF — the same, 0.206
- MLSL — lower, ≤ 0.2
- QIIL — lower, ≤ 0.2
- RCKW — higher, 0.367
- SNSM — lower, ≤ 0.2
- AARR — lower, ≤ 0.2
- HRCP — lower, ≤ 0.2
- QLVK — lower, ≤ 0.2
- FSLD — lower, ≤ 0.2
- PHFA — lower, ≤ 0.2
- NKPR — lower, ≤ 0.2
- TFKT — lower, ≤ 0.2
- QSCD — lower, ≤ 0.2
- RFTT — higher, 0.836
- VAEG — lower, ≤ 0.2
- LRNL — lower, ≤ 0.2
- LRTL — lower, ≤ 0.2

Reference: a collection of fitness landscapes (doi:10.1016/j.celrep.2020.107928)
